{"source": "the supplement of paper PMC8183993", "note": "Several values for one entry are separate records, joined by “and”; a condition that tells them apart may be missing. Equal values may be shown once. Where a name gives a salt, the structure may show the parent alone. ± gives the standard deviation of the averaged measurements. The full ranking holds about 3,100 compounds; the median of “mean cytoplasmic OPP incorporation (global translation) relative to DMSO” is about 100, and the lowest 2% start at about 56. The list shows a part of the results. Peptide text beside a SMILES is read from it. * marks the point of attachment. Cbz = O=C(OCc1ccccc1)*; CH2F = FC*"}
{"test_system": "U2OS", "test": "mean cytoplasmic OPP incorporation (global translation) relative to DMSO (% of DMSO); higher = more protein synthesis", "conditions": "10 µM; 24 h", "method": "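Primary image-based screen in U2OS cells: compounds at 10 uM for 24 h, then a 1 h o-propargyl-puromycin (OPP) pulse, click labelling, and high-throughput microscopy. Mean cytoplasmic OPP intensity and nuclei count were normalised to DMSO wells within each plate (DMSO = 100) and averaged over triplicate plates.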"}
{"molecule": "Cn1cc(-c2ccc3ncc(Cc4ccc5ncccc5c4)n3n2)cn1", "mean cytoplasmic OPP incorporation": "123 ± 8.6"}
{"molecule": "CC1(C)Oc2ccc(C#N)cc2[C@@H](N2CCCC2=O)[C@@H]1O", "note": "[Levcromakalim]", "mean cytoplasmic OPP incorporation": 99.4}
{"molecule": "Cc1cc(NC(=O)Nc2ccc(N(C)C)cc2)c2cc(F)cc(F)c2n1", "mean cytoplasmic OPP incorporation": 102}
{"molecule": "Cc1onc(-c2c(Cl)cccc2Cl)c1C(=O)N[C@@H]1C(=O)N2[C@@H]1SC(C)(C)[C@@H]2C(=O)O", "note": "[Dicloxacillin sodium salt hydrate]", "mean cytoplasmic OPP incorporation": 93.9}
{"molecule": "CC(C)(C(=O)O)c1ccc(C(O)CCCN2CCC(C(O)(c3ccccc3)c3ccccc3)CC2)cc1", "note": "(centres undefined) [Fexofenadine hydrochloride]", "mean cytoplasmic OPP incorporation": 99.5}
{"molecule": "CC(C)(C(=O)O)c1ccc(C(O)CCCN2CCC(C(O)(c3ccccc3)c3ccccc3)CC2)cc1", "note": "(centres undefined) [Fexofenadine HCl]", "mean cytoplasmic OPP incorporation": 90.6}
{"molecule": "O=c1cc(N2CCOCC2)oc2c(-c3cccc4c3sc3ccccc34)cccc12", "mean cytoplasmic OPP incorporation": 121}
{"molecule": "NC(N)=S", "note": "[Thiourea]", "mean cytoplasmic OPP incorporation": 102}
{"molecule": "COc1cccc(-c2cc(NCc3ccc4c(c3)OCO4)nc(N)n2)c1", "mean cytoplasmic OPP incorporation": 92.3}
{"molecule": "COc1ccc([C@@H]2CC(=O)c3c(O)cc(O[C@@H]4O[C@H](CO[C@@H]5O[C@@H](C)[C@H](O)[C@@H](O)[C@H]5O)[C@@H](O)[C@H](O)[C@H]4O)cc3O2)cc1O", "note": "[Hesperidin]", "mean cytoplasmic OPP incorporation": "101 ± 2.1"}
{"molecule": "O=C(O)COc1ccc(OCCNC[C@H](O)COc2ccccc2)cc1", "note": "[ICI 215,001 hydrochloride]", "mean cytoplasmic OPP incorporation": 100}
{"molecule": "O=C[C@H](O)[C@@H](O)[C@H](O)CO", "note": "[Xylose]", "mean cytoplasmic OPP incorporation": 93.2}
{"molecule": "Cc1cc(C(C)(C)C)c(O)c(C)c1CC1=NCCN1", "note": "[Oxymetazoline hydrochloride]", "mean cytoplasmic OPP incorporation": "95.4 ± 7.8"}
{"molecule": "CN(C)CCCN1c2ccccc2Sc2ccccc21", "note": "[Promazine hydrochloride]", "mean cytoplasmic OPP incorporation": 103}
{"molecule": "NS(=O)(=O)c1cc(C(=O)O)cc(N2CCCC2)c1Oc1ccccc1", "note": "[Piretanide]", "mean cytoplasmic OPP incorporation": 107}
{"molecule": "C[N+]1(C)[C@@H]2C[C@@H](OC(=O)C(O)(c3cccs3)c3cccs3)C[C@H]1[C@@H]1O[C@@H]12", "note": "[Tiotropium Bromide hydrate]", "mean cytoplasmic OPP incorporation": 107}
{"molecule": "CC(C(=O)O)c1ccc2c(c1)Cc1cccnc1O2", "note": "(centres undefined) [Pranoprofen]", "mean cytoplasmic OPP incorporation": 102}
{"molecule": "CSc1ccc2c(c1)C(N1CCN(C)CC1)Cc1ccccc1S2", "note": "(centres undefined) [Methiothepin maleate]", "mean cytoplasmic OPP incorporation": "113 ± 2.2"}
{"molecule": "COC(=O)C[C@H](NC(=O)[C@H](C)NC(=O)[C@@H](NC(=O)OCc1ccccc1)C(C)C)C(=O)CF", "note": "(Cbz-Val-Ala-Asp(OMe)-CH2F)", "mean cytoplasmic OPP incorporation": 94.9}
{"molecule": "O=C(/C=C/c1ccc2ccccc2n1)c1ccncc1", "mean cytoplasmic OPP incorporation": 26.3}
{"molecule": "CC(=O)Nc1ccccc1", "note": "[Acetanilide (Antifebrin)]", "mean cytoplasmic OPP incorporation": 102}
{"molecule": "COC(c1ccccc1)(c1ccccc1)[C@H](Oc1nc(C)cc(C)n1)C(=O)O", "note": "[Ambrisentan]", "mean cytoplasmic OPP incorporation": "101.2 ± 0.59"}
{"molecule": "COC(=O)C1=C(C)NC(C)=C(C(=O)OCCN2CCN(C(c3ccccc3)c3ccccc3)CC2)C1c1cccc([N+](=O)[O-])c1", "note": "(centres undefined) [Manidipine (Manyper)]", "mean cytoplasmic OPP incorporation": 108}
{"molecule": "Cc1c(C)c2c(c(C)c1O)CCC(C)(COc1ccc(CC3SC(=O)NC3=O)cc1)O2", "note": "(centres undefined) [Troglitazone]", "mean cytoplasmic OPP incorporation": "103 ± 3.5"}
{"molecule": "Cc1ccc(O)c(N=Nc2ccccc2)n1", "mean cytoplasmic OPP incorporation": 90.4}
{"molecule": "C[N+]1(C)[C@@H]2CC[C@H]1C[C@@H](OC(=O)C(O)c1ccccc1)C2", "note": "(some centres undefined) [Homatropine Methylbromide]", "mean cytoplasmic OPP incorporation": 103}
{"molecule": "CC(C)=CC[C@@H](O)C1=CC(=O)c2c(O)ccc(O)c2C1=O", "note": "[Shikonin]", "mean cytoplasmic OPP incorporation": 94.2}
{"molecule": "NC(=O)c1cc[n+](CC2=C(C(=O)[O-])N3C(=O)[C@@H](NC(=O)[C@@H](c4ccccc4)S(=O)(=O)O)[C@H]3SC2)cc1", "note": "[Cefsulodin sodium salt]", "mean cytoplasmic OPP incorporation": 102}
{"molecule": "CCCCCC#CCC#CCC#CCC#CCCCC(=O)O", "note": "[5,8,11,14-Eicosatetraynoic acid]", "mean cytoplasmic OPP incorporation": 97.4}
{"molecule": "C[C@]12CC[C@H](O)CC1=CC[C@@H]1[C@@H]2CC[C@]2(C)C(n3cnc4ccccc43)=CC[C@@H]12", "note": "[Galeterone (TOK-001)]", "mean cytoplasmic OPP incorporation": 121}
{"molecule": "CC1=C(/C=C/C(C)=C/C=C/C(C)=C/C(=O)O)C(C)(C)CCC1", "note": "[Retinoic acid]", "mean cytoplasmic OPP incorporation": "104 ± 4.3"}
{"molecule": "CC1=C(/C=C/C(C)=C/C=C/C(C)=C/C(=O)O)C(C)(C)CCC1", "note": "[Retinoic Acid]", "mean cytoplasmic OPP incorporation": 103}
{"molecule": "CC1=C(/C=C/C(C)=C/C=C/C(C)=C/C(=O)O)C(C)(C)CCC1", "note": "[Retinoic acid, all trans]", "mean cytoplasmic OPP incorporation": 96}
{"molecule": "O=C(Nc1nc2cccc(-c3ccc(CN4CCS(=O)(=O)CC4)cc3)n2n1)C1CC1", "note": "[Filgotinib£¬GLPG0643)]", "mean cytoplasmic OPP incorporation": 96.6}
{"molecule": "N=C(N)NS(=O)(=O)c1ccc(N)cc1", "note": "[Sulfaguanidine]", "mean cytoplasmic OPP incorporation": 103}
{"molecule": "CC(=O)Oc1ccccc1C(=O)O", "note": "[Acetylsalicylic acid]", "mean cytoplasmic OPP incorporation": 104}
{"molecule": "CCCCNC(=O)[C@@H]1Cc2ccccc2N1C(=O)[C@@H](N)CC", "note": "[Butabindide oxalate]", "mean cytoplasmic OPP incorporation": 99.6}
{"molecule": "CNS(=O)(=O)CCc1ccc2[nH]cc(C3CCN(C)CC3)c2c1", "note": "[Naratriptan HCl]", "mean cytoplasmic OPP incorporation": 101}
{"molecule": "O=C(O)c1ccc(-c2c[nH]c3ncc(-c4ccccc4)cc23)cc1C1CCCC1", "mean cytoplasmic OPP incorporation": "104 and 110"}
